The values that follow come from the supplement of paper PMC7266297.

Each structure is given as a SMILES string. Counter-ions that a name gives are not always drawn. This is one part of the list. Many values rest on one well or one pass, so single values are uncertain. Bounds are passed on as bounds.
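Further: Read-out is SRB optical density at 490 nm, with the control being wells given 0.5% DMSO vehicle, and compound added one day after cells were plated.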

This assay has as its system KB-V1. In words: growth inhibition relative to DMSO control (SRB); cervical cancer cells: KB-3-1 is the parent and KB-V1 overexpresses MDR1; SRB is the sulforhodamine B stain; higher = more growth inhibition. Particulars: 1 µM; 72 h.
`CN(C)CCc1c[nH]c2ccc(CS(=O)(=O)N3CCCC3)cc12` [Almotriptan Malate] returned a growth inhibition of 22.3%.

With `CCCCCCCCCCCC1=C(O)C(=O)C=C(O)C1=O` [Embelin], the growth inhibition stood at 11%.

Turning to `CN1CCN(c2cccc(Nc3nc4c(-c5ccc(S(C)(=O)=O)cc5)cccn4n3)c2)CC1`, the growth inhibition is 8.76%.

`O=C(c1ccccc1)c1ccc2n1CCC2C(=O)O` (stereo not given) [Ketorolac] registered a growth inhibition of 13.5%.

Compound `Cc1cc(/C=C/C#N)cc(C)c1Nc1ccnc(Nc2ccc(C#N)cc2)n1` [Rilpivirine] came in with a growth inhibition of under 0%.

`Cc1cn([C@H]2C[C@H](N=[N+]=[N-])[C@@H](CO)O2)c(=O)[nH]c1=O` [Zidovudine]: the growth inhibition is 11.7%.

`O=C(O)CCc1ccc(NCc2cccc(Oc3ccccc3)c2)cc1` gave a growth inhibition of 1.85%.

Compound `Cc1cc2c(F)c(Oc3ncnn4cc(OC[C@@H](C)OC(=O)[C@H](C)N)c(C)c34)ccc2[nH]1` returned a growth inhibition of 32.4%.

`CC(C)NCC(O)COc1cccc2ccccc12` (stereo not given) [Propranolol HCl]: the growth inhibition stood at 0.282%.

In the case of `CCOc1nc2cccc(C(=O)OC(C)OC(=O)OC3CCCCC3)c2n1Cc1ccc(-c2ccccc2-c2nn[nH]n2)cc1` (stereo not given) [Candesartan Cilexetil], the growth inhibition amounted to 10.8%.

As to `CNC(=O)CN1CCC(Oc2cc3c(Nc4cccc(Cl)c4F)ncnc3cc2OC)CC1` [AZD8931 (Sapitinib)], the growth inhibition came out at 29%.

In the case of `O=C(O)COCCN1CCN(C(c2ccccc2)c2ccc(Cl)cc2)CC1` (stereo not given) [Cetirizine DiHCl], the growth inhibition is 39.9%.

`Cc1ccccc1C(OCCN(C)C)c1ccccc1` (stereo not given) [Orphenadrine Citrate]: the growth inhibition was 24.8%.

Take `OC(CN1CCN(c2cccc(Cl)c2)CC1)C(c1ccccc1)c1ccccc1` (stereo not given): the growth inhibition turned out to be 1.56%.

Take `Cc1ccc(NC(=O)c2cccc(C(C)(C)C#N)c2)cc1Nc1ccc2ncn(C)c(=O)c2c1`: the growth inhibition was determined as 7.81%.

For the compound `Cn1c(=O)n(-c2ccc(C(C)(C)C#N)cc2)c2c3cc(-c4cnc5ccccc5c4)ccc3ncc21` [BEZ235 (NVP-BEZ235, Dactolisib)], the growth inhibition was 93.7%.

Compound `Nc1ccn([C@@H]2CS[C@H](CO)O2)c(=O)n1` [Lamivudine] gave a growth inhibition of 14.5%.

Compound `C#CCN[C@@H]1CCc2ccccc21` [Rasagiline Mesylate] came in with a growth inhibition of 40.2%.

For the compound `CCN(c1cc(-c2ccc(CN3CCOCC3)cc2)cc(C(=O)NCc2c(C)cc(C)[nH]c2=O)c1C)C1CCOCC1`, the growth inhibition was under 0%.

For `CNC(=O)[C@H](Cc1ccccc1)NC(=O)[C@H](CC(C)C)[C@H](CSc1cccs1)C(=O)NO` [Batimastat (BB-94)], the growth inhibition was under 0%.

`Cn1cnc2c(F)c(Nc3ccc(Br)cc3F)c(C(=O)NOCCO)cc21` registered a growth inhibition of 3.19%.

Regarding `O=C(O)c1cccc(-c2noc(-c3ccccc3F)n2)c1` [Ataluren (PTC124)], the growth inhibition was 18.4%.

Regarding `CC[C@@H]1C(=O)N(C)c2cnc(Nc3ccc(C(=O)NC4CCN(C)CC4)cc3OC)nc2N1C1CCCC1`, the growth inhibition worked out at 95.8%.

`CNC[C@H](O)c1ccc(O)c(O)c1` [Epinephrine Bitartrate]: the growth inhibition is 6.38%.

`COc1ccc(CNc2nc(N3CCC[C@H]3CO)ncc2C(=O)NCc2ncccn2)cc1Cl` [Avanafil] registered a growth inhibition of under 0%.

With `CN(C)C(=O)[C@H](O)[C@H](Cc1ccccc1)NC(=O)c1cc2cc(Cl)ccc2[nH]1`, the growth inhibition is 7.81%.

With `NC(=O)Nc1cc(-c2cccc(F)c2)sc1C(=O)N[C@H]1CCCNC1`, the growth inhibition came out at 44.4%.

Compound `COc1ccc(-c2nc3cc(C4=NNC(=O)CC4C)ccc3[nH]2)cc1` (stereo not given) [Pimobendan] had a growth inhibition of 14.7%.

As for `O=C1C[C@@H](c2ccc(O)cc2)Oc2cc(O)cc(O)c21` [Naringenin], the growth inhibition was found to be 14%.

`O=c1cc(-c2cccc3c2Sc2ccccc2S3)oc(N2CCOCC2)c1` gave a growth inhibition of 23.6%.

`O=C(c1ccc(F)cc1)N1CCC[C@H](c2nc(-c3ccc(F)cc3)no2)C1` came in with a growth inhibition of under 0%.

`O=C(NC1CCNCC1)c1n[nH]cc1NC(=O)c1c(Cl)cccc1Cl` yielded a growth inhibition of 35.9%.

For the compound `CN1C(C(=O)Nc2ccccn2)=C(O)c2sc(Cl)cc2S1(=O)=O` [Lornoxicam], the growth inhibition came out at 21.3%.

`CCNC(=O)Nc1ccc(-c2nc3c(c(N4CCOC[C@@H]4C)n2)CCN(C2COC2)C3)cc1` had a growth inhibition of 54.6%.

`CC12CC3CC(C)(C1)CC(N)(C3)C2` [Memantine HCl] registered a growth inhibition of 29.4%.

`CNC(=O)c1cc(COc2nnc(Nc3ccc(Cl)cc3)c3ccoc23)ccn1` [Telatinib] returned a growth inhibition of 17.8%.

`CCOC(=O)[C@H](CCc1ccccc1)N[C@@H](C)C(=O)N1CCC[C@H]1C(=O)O` [Enalapril Maleate] displayed a growth inhibition of 20.1%.

In turn, `O=c1ncccn1[C@@H]1O[C@H](CO)[C@@H](O)[C@H]1O` [Zebularine] registered a growth inhibition of 16.1%.

`COc1ccc(CNCc2cccc3ccccc23)cc1` gave a growth inhibition of 13.3%.

Regarding `COCC(=O)NC/C=C/c1ccc2ncnc(Nc3ccc(Oc4ccc(C)nc4)c(C)c3)c2c1`, the growth inhibition amounted to 33.8%.
